# Results published in the supplement of paper PMC8728848.
# The other results are listed elsewhere or left out.
# B1: Als3-41 (Candida albicans) (protein)
# chain: KTITGVFNSFNSLTWSNAATYNYKGPGTPTWNAVLGWSLDGTSASPGDTFTLNMPCVFKFTTSQTSVDLTAHGVKYATCQFQAGEEFMTFSTLTCTVSNTLTPSIKALGTVTLPLAFNVGGTGSSVDLEDSKCFTAGTNTVTFNDGGKKISINVDFERSNVDPKGYLTDSRVIPSLNKVSTLFVAPQCANGYTSGTMGFANTYGDVQIDCSNIHVGITKGLNDWNYPVSSESFSYTKTCSSNGIFITYKNVPAGYRPFVDAYISATDVNSYTLSYANEYTCAGGYWQRAPFTLRWTGYRNSDAGSNGIVIVATTRTVTDSTTAVTTLPFDPNRDKTKTIEILKPIPTTTITTSYVGVTTSYLTKTAPIGETATVIVD
# Key:
# Experiment in all cases: glycan array binding signal (z-score within array); higher = stronger binding
# Conditions in all cases: glycan notation: IUPAC condensed, linker removed
# [1] = molecular target: Man(a1-2)Man(a1-3)[Man(a1-2)Man(a1-6)]Man
# How it was run: (§1)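 Columns mapping to the same glycan were averaged after glycan names were converted to IUPAC-condensed notation. The data come from 3228 arrays in the Consortium for Functional Glycomics database, limited to those with an available protein sequence. Binding is reported as a within-array Z-score averaged across arrays of one protein sequence and across linkers.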
# [2] = molecular target: Man(a1-2)Man(a1-3)[Man(a1-2)Man(a1-6)]Man(a1-6)[Man(a1-2)Man(a1-2)Man(a1-3)]Man
# How it was run: as §1
# [3] = molecular target: Man(a1-2)Man(a1-3)[Man(a1-2)Man(a1-6)]Man(a1-6)[Man(a1-2)Man(a1-2)Man(a1-3)]Man(b1-4)GlcNAc(b1-4)GlcNAc
# How it was run: as §1
# [4] = molecular target: Man(a1-2)Man(a1-3)[Man(a1-6)]Man(a1-6)[Man(a1-2)Man(a1-3)]Man(b1-4)GlcNAc(b1-4)GlcNAc
# How it was run: as §1
# [5] = molecular target: Man(a1-2)Man(a1-6)[Man(a1-3)]Man(a1-6)[Man(a1-2)Man(a1-2)Man(a1-3)]Man
# How it was run: as §1
# [6] = molecular target: Man(a1-2)Man(a1-6)[Man(a1-3)]Man(a1-6)[Man(a1-2)Man(a1-2)Man(a1-3)]Man(b1-4)GlcNAc(b1-4)GlcNAc
# How it was run: as §1
# Man(a1-3)[Man(a1-6)]Man = molecular target: Man(a1-3)[Man(a1-6)]Man
# How it was run: as §1
# [7] = molecular target: Man(a1-3)[Man(a1-6)]Man(a1-6)[Man(a1-2)Man(a1-3)]Man(b1-4)GlcNAc(b1-4)GlcNAc
# How it was run: as §1
# [8] = molecular target: Man(a1-3)[Man(a1-6)]Man(a1-6)[Man(a1-3)]Man
# How it was run: as §1
# [9] = molecular target: Man(a1-3)[Man(a1-6)]Man(a1-6)[Man(a1-3)]Man(b1-4)GlcNAc(b1-4)GlcNAc
# How it was run: as §1
# [10] = molecular target: Man(a1-3)[Man(a1-6)]Man(b1-4)GlcNAc(b1-4)GlcNAc
# How it was run: as §1
# [11] = molecular target: Man(a1-3)[Man(a1-6)]Man(b1-4)GlcNAc(b1-4)[Fuc(a1-6)]GlcNAc
# How it was run: as §1
# Man(a1-6)Man = molecular target: Man(a1-6)Man
# How it was run: as §1
# Man(b1-4)GlcNAc = molecular target: Man(b1-4)GlcNAc
# How it was run: as §1
# MurNAc(b1-4)GlcNAc = molecular target: MurNAc(b1-4)GlcNAc
# How it was run: as §1
# Neu5Ac(a2-3)Gal = molecular target: Neu5Ac(a2-3)Gal
# How it was run: as §1
# [12] = molecular target: Neu5Ac(a2-3)Gal(b1-3)GalNAc
# How it was run: as §1
# [13] = molecular target: Neu5Ac(a2-3)Gal(b1-3)GalNAc(b1-3)Gal(a1-4)Gal(b1-4)Glc
# How it was run: as §1
# [14] = molecular target: Neu5Ac(a2-3)Gal(b1-3)GalNAc(b1-4)[Neu5Ac(a2-3)]Gal(b1-4)Glc
# How it was run: as §1
# [15] = molecular target: Neu5Ac(a2-3)Gal(b1-3)GalNAc(b1-4)[Neu5Ac(a2-8)Neu5Ac(a2-3)]Gal(b1-4)Glc
# How it was run: as §1
# [16] = molecular target: Neu5Ac(a2-3)Gal(b1-3)GalNAc6S
# How it was run: as §1
# [17] = molecular target: Neu5Ac(a2-3)Gal(b1-3)GlcNAc
# How it was run: as §1
# [18] = molecular target: Neu5Ac(a2-3)Gal(b1-3)GlcNAc(b1-2)Man
# How it was run: as §1
# [19] = molecular target: Neu5Ac(a2-3)Gal(b1-3)GlcNAc(b1-2)Man(a1-3)[GlcNAc(b1-4)][Neu5Ac(a2-3)Gal(b1-3)GlcNAc(b1-2)Man(a1-6)]Man(b1-4)GlcNAc(b1-4)GlcNAc
# How it was run: as §1
# [20] = molecular target: Neu5Ac(a2-3)Gal(b1-3)GlcNAc(b1-2)Man(a1-3)[Neu5Ac(a2-3)Gal(b1-3)GlcNAc(b1-2)Man(a1-6)]Man(b1-4)GlcNAc(b1-4)GlcNAc
# How it was run: as §1
# [21] = molecular target: Neu5Ac(a2-3)Gal(b1-3)GlcNAc(b1-3)Gal(b1-3)GlcNAc
# How it was run: as §1
# [22] = molecular target: Neu5Ac(a2-3)Gal(b1-3)GlcNAc(b1-3)Gal(b1-4)GlcNAc
# How it was run: as §1
# [23] = molecular target: Neu5Ac(a2-3)Gal(b1-3)GlcNAc(b1-3)GalNAc
# How it was run: as §1
# [24] = molecular target: Neu5Ac(a2-3)Gal(b1-3)GlcNAc(b1-4)Gal(b1-4)Glc
# How it was run: as §1
# [25] = molecular target: Neu5Ac(a2-3)Gal(b1-3)GlcNAc(b1-6)GalNAc
# How it was run: as §1
# [26] = molecular target: Neu5Ac(a2-3)Gal(b1-3)GlcNAc6S
# How it was run: as §1
# [27] = molecular target: Neu5Ac(a2-3)Gal(b1-3)[Fuc(a1-4)]GlcNAc
# How it was run: as §1
# [28] = molecular target: Neu5Ac(a2-3)Gal(b1-3)[Fuc(a1-4)]GlcNAc(b1-3)Gal(b1-3)[Fuc(a1-4)]GlcNAc
# How it was run: as §1
# [29] = molecular target: Neu5Ac(a2-3)Gal(b1-3)[Fuc(a1-4)]GlcNAc(b1-3)Gal(b1-4)[Fuc(a1-3)]GlcNAc
# How it was run: as §1
# [30] = molecular target: Neu5Ac(a2-3)Gal(b1-3)[GlcNAc(b1-6)]GalNAc
# How it was run: as §1
# [31] = molecular target: Neu5Ac(a2-3)Gal(b1-3)[Neu5Ac(a2-6)]GalNAc
# How it was run: as §1
# [32] = molecular target: Neu5Ac(a2-3)Gal(b1-3)[Neu5Ac(a2-6)]GlcNAc(b1-3)[Fuc(a1-3)[Gal(b1-4)]GlcNAc(b1-6)]Gal(b1-4)Glc
# How it was run: as §1
binder,measurement,setting,value
B1,glycan array binding signal (z-score),[1],-0.261
same,glycan array binding signal (z-score),[2],-0.353
same,glycan array binding signal (z-score),[3],-0.168
same,glycan array binding signal (z-score),[4],0.006
same,glycan array binding signal (z-score),[5],-0.295
same,glycan array binding signal (z-score),[6],-0.239
same,glycan array binding signal (z-score),Man(a1-3)[Man(a1-6)]Man,-0.189
same,glycan array binding signal (z-score),[7],-0.11
same,glycan array binding signal (z-score),[8],-0.173
same,glycan array binding signal (z-score),[9],-0.308
same,glycan array binding signal (z-score),[10],-0.254
same,glycan array binding signal (z-score),[11],-0.013
same,glycan array binding signal (z-score),Man(a1-6)Man,-0.022
same,glycan array binding signal (z-score),Man(b1-4)GlcNAc,0.697
same,glycan array binding signal (z-score),MurNAc(b1-4)GlcNAc,0.244
same,glycan array binding signal (z-score),Neu5Ac(a2-3)Gal,-0.322
same,glycan array binding signal (z-score),[12],0.446
same,glycan array binding signal (z-score),[13],-0.312
same,glycan array binding signal (z-score),[14],-0.31
same,glycan array binding signal (z-score),[15],-0.243
same,glycan array binding signal (z-score),[16],-0.126
same,glycan array binding signal (z-score),[17],-0.305
same,glycan array binding signal (z-score),[18],-0.24
same,glycan array binding signal (z-score),[19],-0.135
same,glycan array binding signal (z-score),[20],-0.215
same,glycan array binding signal (z-score),[21],-0.289
same,glycan array binding signal (z-score),[22],-0.197
same,glycan array binding signal (z-score),[23],-0.256
same,glycan array binding signal (z-score),[24],-0.075
same,glycan array binding signal (z-score),[25],1.27
same,glycan array binding signal (z-score),[26],0.077
same,glycan array binding signal (z-score),[27],-0.339
same,glycan array binding signal (z-score),[28],-0.161
same,glycan array binding signal (z-score),[29],0.498
same,glycan array binding signal (z-score),[30],0.292
same,glycan array binding signal (z-score),[31],-0.123
same,glycan array binding signal (z-score),[32],-0.245
